The other results are listed elsewhere or left out. These are further read-outs of the screen, such as a control signal, another cell line or another target. No call is given for them.

This experiment can be described thus: cell-free HIV fusion peptide-binding blockers – biochemical, uHTS, fluorescence dequenching, primary screen (AID 1986). Conditions: 30 min, measured here: repeat confirmation average inhibition, at 18.6 µM, stronger effect = higher value.
For the compound `NC(=O)Cn1cc(C=C2C(=O)NC(=O)NC2=O)c2ccccc21`, the inhibition was 190%.
With `O=C1NC(=S)N(c2ccc(F)cc2)C(=O)/C1=C\c1ccoc1` the figure was 88.2%.
The result for `CCCCN1C(=O)/C(=C/C=C/c2ccco2)C(=O)NC1=S` reads 81.4%; that for `COC1C(OC(=O)c2ccc(C)[nH]2)C(O)C(Oc2ccc3c(O)c(NC(=O)c4ccc(O)c(CC=C(C)C)c4)c(=O)oc3c2Cl)OC1(C)C` (stereo unspecified), 65%.
With `O=c1oc2ccccc2c(O)c1C(c1ccc([N+](=O)[O-])cc1)c1c(O)c2ccccc2oc1=O` the figure was 77.3%; with `O=C(N/N=C/c1c(O)n(C2CCCCC2)c(=S)[nH]c1=O)c1ccccc1O`, 73.9%.
`O=C1NC(=S)N(c2ccc(F)cc2)C(=O)/C1=C/c1ccco1`: the inhibition turned out to be 71.9%.
The result for `COc1ccc(OC)c(N2C(=O)/C(=C/c3ccco3)C(=O)NC2=S)c1` reads 63.4%.
On to `Cc1ccc(N2C(=O)/C(=C/c3ccc(CN(CCC#N)S(C)(=O)=O)o3)C(=O)NC2=S)cc1C`, for which the inhibition is 66.4%.
Turning to `COc1ccc(N2C(=O)/C(=C/c3ccco3)C(=O)NC2=S)cc1`, the inhibition was 67.1%.
The result for `O=C(O)c1cccc2c1NC(c1cccc([N+](=O)[O-])c1)C1CC(Sc3ccccc3[N+](=O)[O-])C(Cl)C21` (stereo unspecified) reads 78.4%.

For orientation: inhibition means the change of the read-out against control, counted positive when it falls.

The record behind these values is PubChem BioAssay AID1986 (Sanford-Burnham Center for Chemical Genomics, 2009).
